Measured values published in the supplement of paper PMC4604168 (melanoma cell lines).
The list shows a part of the results. Most values come without repeats; read them as rough.
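Also: cell number obtained by counting DAPI-stained nuclei in high-throughput microscope images with image analysis software, screen run in 1,536-well plates.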

Each compound was assayed on UACC62 (assay: cell count relative to DMSO control; melanoma cells; higher = more viable cells). Settings: library dose: low library concentration; 72 h.
`Cn1cnc2c(F)c(Nc3ccc(Br)cc3Cl)c(C(=O)NOCCO)cc21` [selumetinib] + c1cc(-c2cnn3cc(-c4ccc(OCCN5CCCCC5)cc4)cnc23)ccn1 [Dorsomorphin] (first compound 0.015 µM, partner dose 0.4 µM) gave a cell count of 85.9%. `CCN(CC)CCNC(=O)c1c(C)[nH]c(/C=C2\C(=O)Nc3ccc(F)cc32)c1C` [sunitinib] + CC(C)CCN1c2nc(Nc3cc(F)c(O)c(F)c3)ncc2N(C)C(=O)C1C [BID1870] (first compound 0.4 µM, partner dose 0.2 µM) gave a cell count of 85.8%. With `COc1cc([C@@H]2c3cc4c(cc3[C@@H](O[C@@H]3O[C@@H]5CO[C@@H](C)O[C@H]5[C@H](O)[C@H]3O)[C@H]3COC(=O)[C@H]23)OCO4)cc(OC)c1O` [etoposide] + COc1ccc(COc2ccc(Cc3cnc(N)nc3N)cc2OC)cc1 [GW2580] (first compound 0.02 µM, partner dose 1 µM) the cell count was 91%. Work on `Cn1cnc2c(F)c(Nc3ccc(Br)cc3Cl)c(C(=O)NOCCO)cc21` [selumetinib] + NCC(=O)Nc1ccc(-n2nc(C(F)(F)F)cc2-c2ccc3c(ccc4ccccc43)c2)cc1 [OSU03012] (first compound 0.015 µM, partner dose 1 µM) yielded a cell count of 67.2%. `COc1cc([C@@H]2c3cc4c(cc3[C@@H](O[C@@H]3O[C@@H]5CO[C@@H](C)O[C@H]5[C@H](O)[C@H]3O)[C@H]3COC(=O)[C@H]23)OCO4)cc(OC)c1O` [etoposide] + O=C(CCCCCCC(=O)Nc1ccccc1)NO [vorinostat] (first compound 0.02 µM, partner dose 0.08 µM) showed a cell count of 84.5%. For `C[C@]1(O)C[C@@H](c2nc(-c3ccc4ccc(-c5ccccc5)nc4c3)c3c(N)nccn32)C1` + CO[C@@H]1[C@H](N(C)C(=O)c2ccccc2)C[C@H]2O[C@]1(C)n1c3ccccc3c3c4c(c5c6ccccc6n2c5c31)C(=O)NC4 [Midostaurin] (first compound 0.4 µM, partner dose 0.08 µM), the cell count was 87.1%. In the case of `CCN(CC)CCNC(=O)c1c(C)[nH]c(/C=C2\C(=O)Nc3ccc(F)cc32)c1C` [sunitinib] + C[C@@H]1CCN(C(=O)CC#N)C[C@@H]1N(C)c1ncnc2[nH]ccc12 [CP690550] (first compound 0.4 µM, partner dose 1 µM), the cell count is reported as 96.7%. In the case of `Cn1cnc2c(F)c(Nc3ccc(Br)cc3Cl)c(C(=O)NOCCO)cc21` [selumetinib] + CCc1ccc(CCOc2ccc(CC3SC(=O)NC3=O)cc2)nc1 [pioglitazone] (first compound 0.015 µM, partner dose 2 µM), the cell count is reported as 62.3%. `C[C@]1(O)C[C@@H](c2nc(-c3ccc4ccc(-c5ccccc5)nc4c3)c3c(N)nccn32)C1` + CCN(CC)CCCCNc1ncc2cc(-c3cc(OC)cc(OC)c3)c(NC(=O)NC(C)(C)C)nc2n1 [PD173074] (first compound 0.4 µM, partner dose 0.1 µM) gave a cell count of 102%. Work on `COc1cc([C@@H]2c3cc4c(cc3[C@@H](O[C@@H]3O[C@@H]5CO[C@@H](C)O[C@H]5[C@H](O)[C@H]3O)[C@H]3COC(=O)[C@H]23)OCO4)cc(OC)c1O` [etoposide] + CN(NC(=O)CC(=O)NN(C)C(=S)c1ccccc1)C(=S)c1ccccc1 [STA4783] (first compound 0.02 µM, partner dose 0.006 µM) yielded a cell count of 91.3%. Compound `C[C@]1(O)C[C@@H](c2nc(-c3ccc4ccc(-c5ccccc5)nc4c3)c3c(N)nccn32)C1` + Cc1cc([N+](=O)[O-])ccc1NS(=O)(=O)c1cc(Cl)ccc1Cl [FH535] (first compound 0.4 µM, partner dose 1 µM) has a cell count of 83.7%. Compound `CCN(CC)CCNC(=O)c1c(C)[nH]c(/C=C2\C(=O)Nc3ccc(F)cc32)c1C` [sunitinib] + COC(=O)c1sccc1S(=O)(=O)Nc1ccc(Nc2ccccc2)cc1OC [GSK0660] (first compound 0.4 µM, partner dose 1 µM) has a cell count of 84.3%. With `Cn1cnc2c(F)c(Nc3ccc(Br)cc3Cl)c(C(=O)NOCCO)cc21` [selumetinib] + COc1cc2c(Oc3ccc4[nH]c(C)cc4c3F)ncnc2cc1OCCCN1CCCC1 [cediranib] (first compound 0.015 µM, partner dose 0.4 µM) the cell count was 80.7%.
